18 sequences from PMC12820563, “FoxP3 forms a head-to-head dimer in vivo and stabilizes its multimerization on adjacent microsatellites” can be followed below.

The other results are listed elsewhere or left out.

In the test the target is T1, MBP-FoxP1dN (Mus musculus, UniProt P58462 326-579).
T1 sequence: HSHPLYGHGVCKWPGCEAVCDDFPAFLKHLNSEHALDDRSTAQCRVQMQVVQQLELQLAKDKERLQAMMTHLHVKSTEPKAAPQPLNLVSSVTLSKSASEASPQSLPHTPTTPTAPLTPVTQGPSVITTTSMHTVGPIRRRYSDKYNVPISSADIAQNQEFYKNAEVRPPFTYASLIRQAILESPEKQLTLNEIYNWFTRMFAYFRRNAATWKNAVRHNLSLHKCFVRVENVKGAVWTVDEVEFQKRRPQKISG
As to the kind of experiment: PD-seq (MBP pull-down with sequencing); 20 mM Tris-HCl pH 7.5, 100 mM NaCl, 1.5 mM MgCl2, 0.4 uM protein, 0.1 uM dsDNA library, 30 min, room temperature, amylose pull-down; high values mean tight binding. The following applies: protein: recombinant; tags: His6-MBP; chain copies: 2; dsDNA, one strand shown. Summed up:
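Binding is the reads-per-million enrichment of pull-down relative to input, pooled across replicates. For this, 0.4 µM His6-MBP-tagged mouse FoxP3 or FoxP1 fragment lacking the N-terminus, made in E. coli, was incubated with 0.1 µM Klenow-filled double-stranded degenerate DNA library for 30 min at room temperature in Tris pH 7.5 buffer with NaCl and MgCl2. Complexes bound to amylose resin were washed three times before proteinase K released the DNA for PCR barcoding and Illumina sequencing.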
Take “GATGATTGTTCTCCCAGCTGATGAATTTGTAGGCTCGAGTAAACAAATTTTCCTAATCTTTCTGTTCAAGCGCCATCTAC”: the binding signal is 0.934 RPM ratio (pull-down/input).
Consider “GATGATTGTTCTCCCAGCTGATGAATTTAGGGGCTCGAGTAAACAAATTTTCCTAATCTTTCTGTTCAAGCGCCATCTAC”, for which the binding signal was 0.857 RPM ratio (pull-down/input).
To “GATGATTGTTCTCCCAGCTGATGAATTGGCAGCTTCGAGTAAACAAATTTTCCTAATCTTTCTGTTCAAGCGCCATCTAC” belongs 0.8 RPM ratio (pull-down/input).
With “GATGATTGTTCTCCCAGCTGATGAATTCTTGAGCTCGAGTAAACAAATTTTCCTAATCTTTCTGTTCAAGCGCCATCTAC”, the binding signal is 0.777 RPM ratio (pull-down/input).
The result for “GATGATTGTTCTCCCAGCTGATGAATTACCCCGGTCGAGTAAACAAATTTTCCTAATCTTTCTGTTCAAGCGCCATCTAC” reads 0.873 RPM ratio (pull-down/input).
The result for “GATGATTGTTCTCCCAGCTGATGAATTTGATCAGTCGAGTAAACAAATTTTCCTAATCTTTCTGTTCAAGCGCCATCTAC” reads 0.898 RPM ratio (pull-down/input).
Take “GATGATTGTTCTCCCAGCTGATGAATTACTTATATCGAGTAAACAAATTTTCCTAATCTTTCTGTTCAAGCGCCATCTAC”: the binding signal is 1.22 RPM ratio (pull-down/input).
Consider “GATGATTGTTCTCCCAGCTGATGAATTATGGGTTTCGAGTAAACAAATTTTCCTAATCTTTCTGTTCAAGCGCCATCTAC”, for which the binding signal was 0.913 RPM ratio (pull-down/input).
Consider “GATGATTGTTCTCCCAGCTGATGAATTCGCTTAATCGAGTAAACAAATTTTCCTAATCTTTCTGTTCAAGCGCCATCTAC”, for which the binding signal is 0.936 RPM ratio (pull-down/input).
The result for “GATGATTGTTCTCCCAGCTGATGAATTTGGGGGATCGAGTAAACAAATTTTCCTAATCTTTCTGTTCAAGCGCCATCTAC” reads 0.828 RPM ratio (pull-down/input); that for “GATGATTGTTCTCCCAGCTGATGAATTGGAACCGTCGAGTAAACAAATTTTCCTAATCTTTCTGTTCAAGCGCCATCTAC”, 0.795 RPM ratio (pull-down/input).
Consider “GATGATTGTTCTCCCAGCTGATGAATTACGTTAGTCGAGTAAACAAATTTTCCTAATCTTTCTGTTCAAGCGCCATCTAC”, for which the binding signal is 1.05 RPM ratio (pull-down/input).
To “GATGATTGTTCTCCCAGCTGATGAATTTTGGTTTTCGAGTAAACAAATTTTCCTAATCTTTCTGTTCAAGCGCCATCTAC” belongs 1.21 RPM ratio (pull-down/input).
With “GATGATTGTTCTCCCAGCTGATGAATTGATGTCGTCGAGTAAACAAATTTTCCTAATCTTTCTGTTCAAGCGCCATCTAC”, the binding signal is 1.14 RPM ratio (pull-down/input).
On to “GATGATTGTTCTCCCAGCTGATGAATTGCAGGTTTCGAGTAAACAAATTTTCCTAATCTTTCTGTTCAAGCGCCATCTAC”, for which the binding signal is 1.08 RPM ratio (pull-down/input).
To “GATGATTGTTCTCCCAGCTGATGAATTAACTCTCTCGAGTAAACAAATTTTCCTAATCTTTCTGTTCAAGCGCCATCTAC” belongs 0.763 RPM ratio (pull-down/input); to “GATGATTGTTCTCCCAGCTGATGAATTTTGCTGTTCGAGTAAACAAATTTTCCTAATCTTTCTGTTCAAGCGCCATCTAC”, 1.64 RPM ratio (pull-down/input).
The result for “GATGATTGTTCTCCCAGCTGATGAATTAGCGAAATCGAGTAAACAAATTTTCCTAATCTTTCTGTTCAAGCGCCATCTAC” reads 0.999 RPM ratio (pull-down/input).
